Among all 48,000 compounds or so, about 120 (0.25%) were called active. About 4% were inconclusive and are not listed. The call rests on the fitted dose curve; in most records, active means well fitted activation curve with a large enough effect; inconclusive means small, poorly fitted or top-dose-only effect, or another doubt; inactive means no such curve, though single readings can be large or run the other way. This is one part of the list.

A short description of the test: Primary qHTS for Identification of Small Molecule Activators of Huntingtin-Antisense Promoter Activity. Further: nearly all actives have a fitted effect of over 55% in size. The settings on record: HEK293 HTT-AS promoter firefly luciferase reporter, 24 h; series mostly up to 57.5 µM; activity change, positive = activation: at the top concentration. In outline: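 Quantitative HTS used concentration series of up to 57.5 uM final on HEK293 luciferase reporter cells, 24 h at 37 degrees C. Readout was Dual-Glo firefly luminescence.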
(In qHTS, concentration-response curves come from the screen itself.)
`COc1ccc(Cl)cc1NC(=O)Cn1ncc2c3ccccc3n(C)c2c1=O`: the “activity change, positive = activation” value is inactive: -14.9%.
With `CCCN(Cc1cccs1)C(=O)Nc1cc(Cl)ccc1C` the figure was inactive: -4.96%.
The figure for `Cc1nn(CC(=O)NCc2ccc(F)cc2)c2ccccc12` is inactive: -5.16%.
The figure for `CCCCCCCCCCCCCCNCCO` is inactive: -6.1%.
For `Cc1ccc2[nH]c3c(=O)n(CC(=O)NCc4ccco4)ncc3c2c1`, the “activity change, positive = activation” value was inactive: -6.67%.
With `O=C(NCc1ccc(Cl)cc1)c1ccc2c(Cl)c3c(nc2c1)CCCC3` the figure was inactive: -30.8%; with `Cc1ccc(C)c(N2CCN(C(=O)CCC(=O)Nc3ccc4nc(N5CCCCC5)cc(C)c4c3)CC2)c1`, inactive: -5.57%.
With `Cc1ccc(OCCSc2nnc(-c3cccs3)o2)cc1Cl` the figure was inactive: -15.3%.
With `CCOC(=O)c1cccc(NC(=O)CCCn2nc(C)c3c(C)n(-c4ccccc4)nc3c2=O)c1` the figure was inactive: -3.33%; with `CCOC(=O)c1c(C)n(-c2ccccc2)c2ccc(OC(=O)c3ccccc3NC(=O)C(C)C)cc12`, inactive: -51.5%; with `CCOC(=O)c1ccc2nc(C)cc(Nc3cccc(C(=O)O)c3)c2c1`, inactive: -7.07%.
As for `Cc1ccc2c(=O)cc(C(=O)Nc3sc4c(c3C(=O)NCc3ccco3)CCC4)oc2c1`, the activity change, positive = activation is inactive: 8.89% [at 11.5 µM, percent change from vehicle, -100% = no light].
Regarding `CC1=C(C(=O)OCc2ccc(C)cc2)C(c2ccccc2F)CC(=O)N1` (stereo not given), the “activity change, positive = activation” value was inactive: -42.5%.
As for `O=C(NCc1ccccc1F)C1CCN(c2nnc(-n3cccc3)s2)CC1`, the “activity change, positive = activation” value was inactive: -12.4%.
For the molecule `COc1cc(NC(=O)CCc2c(C)nn(-c3ccc(N4CCOCC4)nn3)c2C)cc(OC)c1OC`, the “activity change, positive = activation” value is inactive: 4.14%.
The figure for `COc1ccc2c(c1)c(=O)c(C(=O)c1ccccc1)cn2CC(=O)Nc1ccc2c(c1)OCCO2` is inactive: -27.3%; for `COCCNC(=O)c1ccc2c(=O)n(CCc3ccccc3)c(SCC(=O)CC(=O)OC)nc2c1` it is inactive: -7.97%; for `COc1cccc(-c2nc(S(=O)(=O)c3ccccc3)c(N3CCCCC3)o2)c1` it is inactive: 7.29%.
With `CCC(C)NC(=O)CSc1nc2cc3c(cc2c(=O)n1CCCC(=O)NCCc1ccc(OC)c(OC)c1)OCO3` (stereo not given), the “activity change, positive = activation” value is inactive: -13.8%.
With `Cc1cccc(OCCSc2nc3ccccc3n2CC(=O)N2CCOCC2)c1` the figure was inactive: -17.7%.
In the case of `COc1ccccc1CNC(=O)c1ccc(CS(=O)(=O)c2c(Cl)cccc2Cl)o1`, the “activity change, positive = activation” value was inactive: -18.1%.
With `CC(=O)OCC1=C(C(=O)O)N2C(=O)[C@@H](NC(=O)CSc3ccncc3)[C@H]2SC1`, the “activity change, positive = activation” value is inactive: 2.59%.
The figure for `CCc1ccc(CNC(=O)c2c3c(nc4ccccc24)C(=O)N(C2CCCCC2)C3)cc1` is inactive: -21.9%.
As to `CCCn1c(=O)c2sccc2n2c(CCCC(=O)N3CCN(c4ccccc4OC)CC3)nnc12`, the “activity change, positive = activation” value was inactive: 3.06%.
Consider `CCOC(=O)c1c(C)[nH]c(C)c1S(=O)(=O)N(C)CC(=O)Nc1cc(Cl)ccc1C`, for which the “activity change, positive = activation” value was inactive: -15.5%.

Values taken from PubChem BioAssay AID1508624 (National Center for Advancing Translational Sciences (NCATS), 2021).
